Reference: the supplement of paper PMC11417369
Some of the results follow.

test system: PF3D7_0420300 AP2 domain 1 (GST-tagged); assay: gcPBM binding intensity (ln(normalized median fluorescence intensity)); higher = stronger DNA binding
Method in brief: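 DNA-binding domains from P. falciparum, fused to GST and produced in E. coli, were put on an Agilent 4 × 180k double-stranded probe array for 1 h in 1× PBS holding 1% milk, 0.2 mg/ml BSA, 0.5% salmon testes DNA and 0.03% Triton X-100. Probes were primer-extended, 36 bp long and drawn from intergenic genomic regions, with negative controls included. After Alexa488 anti-GST antibody detection and a 488 nm scan, binding intensity was set as the highest Masliner-normalised natural-log median intensity across replicate spots of either probe orientation.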

| Sequence | gcPBM binding intensity (ln) |
| --- | --- |
| TTCAATTAAAAAATATGTACGCATAAATTGATATAT [XGTACX_site4289] | 9.18 |
| ATAGTATACGGACACACACACACACCGATATATATA [CACACA_site5032] | 10.3 |
| TATCTTATATTTACACGTACGTAGAATTTATAAGTT [XGTACX_site3460] | 9.14 |
| TTTTATTAATATTATTTATCTTCTCAAAAGATATAT [XGTACX_negctrl_site202] | 8.82 |
| CACACGTATAAATATACACACTAAAATACACGCACA [CACACA_site7876] | 9.73 |
| AGCACAGACTAATAAACACACACATATATATATATA [CACACA_site8021] | 9.64 |
| ATATATATATATATATGTACATATTTATTTATTTAT [XGTACX_site5161] | 9.15 |
| CTCATTCTTTTTTGATGTACTTTTTTTTTTTAAGTT [XGTACX_site2875] | 9.3 |
| AATATATAAATCTATTGTACATAAAGAGGATAATAA [XGTACX_site1022] | 9.31 |
| GATGATTATATATATACGCACACTTTTTTTTTTTTT [CACACA_site2652] | 9.65 |
| ATCACAAAATGGAATGTTCTATGATATATATGTATA [XGTACX_negctrl_site460] | 9.21 |
| TGTAAATATTTATTCACACATAATCAATTAGAAAAA [CACACA_site5944] | 9.12 |
| AAAAAAAAAAAAAACACACACACAATAGTATATAAA [CACACA_site957] | 9.94 |
| TTGTTACTGTTTTGGTGTACAAAAAAAAAAAATATA [XGTACX_site5762] | 8.92 |
| TACTTACTTACTTACTCACACACATATACAAAGAAA [CACACA_site3348] | 9.63 |
| AATACAGATAATACAACACACAAGTAATATAAACCT [CACACA_site5900] | 10.1 |
| TATATATATTTTTATGCACACACAAAGAAAATTTTC [CACACA_site8931] | 9.6 |
| TCATCCGTTTTAAGAAGTACATATTTGAACATATAA [XGTACX_site8040] | 8.92 |
| TTTTTTTCTTTTCAAACACACAATTGGTATATATTA [CACACA_site3320] | 9.41 |
| CATAGGATTATACTTTTGGAATATTATTAAATATGT [XGTACX_negctrl_site75] | 9.14 |
| TTTATTTTTTAATGTTGTACAATGTTGTTTAATCAA [XGTACX_site6489] | 9.13 |
| ACATGTCAAACATTTGCACACAAAAAAATAAAAATT [CACACA_site691] | 9.41 |

| Sequence | gcPBM binding intensity (ln) |
| --- | --- |
| ATATATAAAATTATATGTACATATATAATATATATA [XGTACX_site529] | 9.16 |
| TATATACAAAAATGCACACGAAAAGTAATATATATA [CACACA_site4173] | 9.66 |
| TATATAAAAATCAATTGTACTTTTTTTTTTTTTTTT [XGTACX_site7327] | 8.95 |
| AAATAACACATATATACACACATATAACTATAATAT [CACACA_site7298] | 9.9 |
| TATATATATATGTGCACACATATATAATATGTATAA [CACACA_site715] | 9.41 |
| AGTAGCATATTCTATTGTACATATATATATATATAT [XGTACX_site2980] | 9.35 |
| ATTAAAAACGGGTGTACACATATATAAATATATATA [CACACA_site4539] | 9.46 |
| ATATGTATATATGTATGTACGTACAAATTGTTGTAA [XGTACX_site8832] | 9.38 |
| TGTATAAAGATATATACACACATATTTATTTATATA [CACACA_site6493] | 9.35 |
| TACAAAATAACTAGCACACATATGTATAAACCTATA [CACACA_site3718] | 9.54 |
| ACCTGAAGAGTCAAACGTACAAATATTATAAAATGA [XGTACX_site3188] | 9.13 |
| TTAATACATTAAATATGTACTTATATATCTCAACTA [XGTACX_site3997] | 9.11 |
| GTTATATTTTTTTTTTGTACATAATATTGTATTGAC [XGTACX_site6338] | 9.56 |
| ATAATAAAAATATATACATGCATTATTATATATATA [TGCATGCA_site799] | 9.19 |
| CAACAATTTCGTCATACACACATTCAGAATATAGAT [CACACA_site7166] | 9.68 |
| TTATTTCGAAGAAAATGTACATATATAAATATATAC [XGTACX_site3308] | 9 |
| ATAATATTTTTTAATTGTACGTTCCATTTTTTTAAA [XGTACX_site1227] | 9.36 |
| ACTATCATTCATAGGTGTACCTAAATATATATATAT [XGTACX_site1696] | 9.27 |
| GATAATTACGGACACACACACACACGCACAACTAAA [CACACA_site7254] | 10.3 |
| CGAATATATTCTAGACGTACTATATAATATATATAT [XGTACX_site4953] | 9.12 |
| TCTTTTTCTTCTTATGTGCACATCAATTATGCTTCT | 9.49 |
| ATTGCAAGTTACTTGTGTACTTATAAGATTAAAAGA [XGTACX_site7696] | 8.99 |
